According to the RNAGym collection of RNA variant scans (doi:10.1073/pnas.2313332121):
This sample is rich in variants without activity.

B1: TPR 5TU (parent)
chain: GGAUCUUCUCGAUCUAACAAAAAAGACAAAUCUGCCACAAAGCUUGAGAGCAUCUUCGGAUGCAGAGGCGGCAGCCUUCGGUGGCGCGAUAGCGCCAACGUUCUCAACUAUGACACGCAAAACGCGUGCUCCGUUGAAUGGAGUUUAUCAUG

Variants of: B1
Test: polymerase ribozyme fitness, log enrichment relative to wild type (log ratio); higher = more active; in vitro selection for triplet polymerase activity
Outline: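 Streptavidin-bead capture of gel-excised extended constructs, followed by RT-PCR, closed a single triplicate in vitro selection round. That round began by annealing PCR-built, transcribed mutant libraries of each subunit of a heterodimeric triplet polymerase ribozyme with a biotinylated primer, the partner subunit and triplets, then incubating them frozen at −7 °C. After Illumina sequencing of inputs and outputs, genotypes needed ≥10 input reads and ≥1 read per output. Fitness is the base-2 logarithm of genotype enrichment over wild-type enrichment, using inverse-variance-weighted replicate averages.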

Variant | polymerase ribozyme fitness (log ratio)
A17U C93A U127G | ≤ -4.2
A16U A22C | -2.41
A17C G59C G84U G100A U135C A137C | ≤ -4.2
A16U A28U G59A A110G C125G | ≤ -4.2
A16U A26U G88U A119G C132U | ≤ -4.2
C18G A21C G42U U78A A91G U101G | ≤ -4.2
A16U A21G C27U A89G A106C | ≤ -4.2
A17G A28U A49U G58C G86A A115U C125U A142U A150U | ≤ -4.2
A17U G84A C123G | -0.525
C18G U53G G59A G80U G84A C87G A115G C118G | ≤ -4.2
A17U G67C G71C G86A A107U A121U U144G | ≤ -4.2
A17U C93A G94U A121U A150G | ≤ -4.2
A17C A19U A20C A29U A47C C51U U77C C85G C114G A122C | ≤ -4.2
A17C A37C C93G | -2.89
A16U G25C A30C G71A C85U C95A C114U | ≤ -4.2
A16U U61A C87G C96A G124A G126U U144A | ≤ -4.2
A17C G42A C85U C95U G124U G136U C149U | ≤ -4.2
C18G A21C C38G A91C | ≤ -4.2
A17G A29C A107U U135G | ≤ -4.2
A17U A29G G74A U148G | ≤ -4.2
A17C G88U C149G | ≤ -4.2

Variant | polymerase ribozyme fitness (log ratio)
A16U U56A C79U G84A C108G C118G U139C | ≤ -4.2
A16U C35U A40C C63U G92A G94A G124A | ≤ -4.2
A16U C96U | -2.07
A17U C36U C103G C114A C123G C131A | ≤ -4.2
A17C G59C U102G C123A | -2.05
A17C G50C C76A C85U G86C C125G | ≤ -4.2
A17G A89G G92A C108G | ≤ -4.2
A17C U82A C85A C93U | ≤ -4.2
A17C A22C G42C A91U C95A U127G | ≤ -4.2
C18A A23G A28C C43U A52C U146A | ≤ -4.2
A17G G25A C93U U102G U104G G136U G143U | ≤ -4.2
C18U A24C U44A G62U G65U C85G | ≤ -4.2
C18A A19U G25A A47U G50A G62U C96G U104G G143A | ≤ -4.2
A17C A19C A73G C96U C123U C125G | -3.23
C18U A24G C27U G68C U127A | ≤ -4.2
A16U C18G C75A G80A C87G U127C A150G U151C | ≤ -4.2
A17U A19C C87G A89U | ≤ -4.2
A17U A60U | -0.153
C18G C27U U82G G88A | ≤ -4.2
C18G C36G G68A G92A C105G | ≤ -4.2
A17U G65U G83A | ≤ -4.2

Variant | polymerase ribozyme fitness (log ratio)
A17C A22C G59A G71U G83C C132A | ≤ -4.2
A17U G46A C51U U53C C85A A122C | ≤ -4.2
A16U G62U A64U G68C A91U G92C C116G G141C U151G | ≤ -4.2
A16U G83A A106G A107C C118U C123G C129G A150G | ≤ -4.2
A16U A29U U77G C85G C116U C125A U134C | ≤ -4.2
C18A A19G C57A C87U C129A U135G | ≤ -4.2
A17U G34U U56A C69A C96G | ≤ -4.2
C18U A29U A40G A41C A52G U109C | ≤ -4.2
A16U C18U G42U U44G A120U G128U G143C | ≤ -4.2
A17C C32G C54A C76G G80A C93A C96A U111A U145G | ≤ -4.2
A16U A26U C96U | ≤ -4.2
A16U A120G | -2.64
A17U C18G A21G A52C U53C C57U C87A G141A | ≤ -4.2
C18G G84A A106C U109G A137G A150C | ≤ -4.2
A17U A37U G68C U90C C93U C105U | ≤ -4.2
A17C C57A A91G G140A | ≤ -4.2
A16U A24G A26U G92U G94U U104G A106C C149U | ≤ -4.2
A17C A20C U53G G84A | -2.28
A16U G46C G83A A120G | ≤ -4.2
A16U A39U G84A G92U C103U C149G U151C | ≤ -4.2
C18G A64C U77C A91G | ≤ -4.2

Variant | polymerase ribozyme fitness (log ratio)
A16U G25C C38U U55A A91G A107C C108U | ≤ -4.2
A17U A19U C93G U111G | ≤ -4.2
A16U U45A C85A A147G | ≤ -4.2
A17U A29C A41G G59C C85G U145A | ≤ -4.2
C18G A29C G50C U56A G83A U101G A122U C125U U127G | ≤ -4.2
A16U C57A C93A U151G | ≤ -4.2
C18G G46A G74C U77A U135C | ≤ -4.2
A16U C85U C99A G141C | ≤ -4.2
A16U C36G C95A | ≤ -4.2
A17C A21U C51U G59C C95U A106U G136C U151G | ≤ -4.2
A17C A29U C36U A41U G81A A91C C108U U130C | ≤ -4.2
A17U G83U | -1.65
A17U A29U G50C A91U C116A U139C | ≤ -4.2
A16U A17C C87G C99A A106G U139C U146C | ≤ -4.2
C18A G84A U101A C103G G140A U146A A150G | ≤ -4.2
A17G G58A G59C C69U C95U U104A | -3.74
A17U C87U C125U | -1.39
A16U U31C C32U C51U U77C C87G C114G | ≤ -4.2
A17G G84A C93A A98G C129G | ≤ -4.2
A17U A22G G67C U82C G86U A97U G140U | ≤ -4.2
